How the values were obtained:
Experiment in all cases: cell-based or functional assay
[1] = target: T1, mouse IL-2Rαβγc (on CTLL2-STAT5 reporter cells) (mouse, UniProt P01590 22-268; P16297 27-539; P34902 23-369)
T1 sequence (looked up) 1: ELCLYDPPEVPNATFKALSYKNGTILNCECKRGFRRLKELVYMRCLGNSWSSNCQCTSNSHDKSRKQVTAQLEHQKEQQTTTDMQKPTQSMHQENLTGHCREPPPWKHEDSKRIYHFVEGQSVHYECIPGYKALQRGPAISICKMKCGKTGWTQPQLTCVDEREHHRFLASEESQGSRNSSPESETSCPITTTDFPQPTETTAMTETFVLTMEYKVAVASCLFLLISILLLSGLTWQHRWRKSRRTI
T1 sequence (looked up) 2: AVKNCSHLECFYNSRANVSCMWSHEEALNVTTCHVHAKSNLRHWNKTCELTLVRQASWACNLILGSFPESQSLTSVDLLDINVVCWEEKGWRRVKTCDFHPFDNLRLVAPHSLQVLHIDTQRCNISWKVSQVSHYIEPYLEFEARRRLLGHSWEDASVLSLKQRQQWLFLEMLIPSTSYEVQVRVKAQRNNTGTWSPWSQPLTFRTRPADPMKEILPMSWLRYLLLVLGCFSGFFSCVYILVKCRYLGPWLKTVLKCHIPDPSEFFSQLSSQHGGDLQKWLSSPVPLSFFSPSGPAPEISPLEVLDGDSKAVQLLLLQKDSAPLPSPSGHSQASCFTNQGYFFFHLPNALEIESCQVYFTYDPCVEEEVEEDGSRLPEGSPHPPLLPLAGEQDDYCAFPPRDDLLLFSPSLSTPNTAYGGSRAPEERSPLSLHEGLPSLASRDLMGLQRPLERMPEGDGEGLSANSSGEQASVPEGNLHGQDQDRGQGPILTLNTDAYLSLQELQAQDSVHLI
T1 sequence (looked up) 3: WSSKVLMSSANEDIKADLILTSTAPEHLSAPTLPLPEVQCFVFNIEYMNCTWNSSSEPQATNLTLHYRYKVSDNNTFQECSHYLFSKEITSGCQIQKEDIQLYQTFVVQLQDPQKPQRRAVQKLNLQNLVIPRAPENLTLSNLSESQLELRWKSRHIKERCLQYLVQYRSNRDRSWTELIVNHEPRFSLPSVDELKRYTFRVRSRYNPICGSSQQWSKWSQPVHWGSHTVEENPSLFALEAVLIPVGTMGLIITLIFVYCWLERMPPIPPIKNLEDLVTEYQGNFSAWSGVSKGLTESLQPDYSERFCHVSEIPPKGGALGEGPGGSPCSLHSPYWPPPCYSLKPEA

[2] = target: T2, human IL-2Rαβγc (on Kit225-STAT5 reporter cells, NK-92 cells, primary Treg cells) (human, UniProt P01589 22-272; P14784 27-551; P31785 23-369)
T2 sequence (looked up) 1: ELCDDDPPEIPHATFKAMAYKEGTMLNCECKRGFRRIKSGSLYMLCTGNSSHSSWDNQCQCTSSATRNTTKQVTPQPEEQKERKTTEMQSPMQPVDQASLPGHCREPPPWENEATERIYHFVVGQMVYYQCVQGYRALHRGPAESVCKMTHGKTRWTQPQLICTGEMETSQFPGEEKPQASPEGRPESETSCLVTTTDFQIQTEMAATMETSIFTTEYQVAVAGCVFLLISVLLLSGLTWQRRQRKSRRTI
T2 sequence (looked up) 2: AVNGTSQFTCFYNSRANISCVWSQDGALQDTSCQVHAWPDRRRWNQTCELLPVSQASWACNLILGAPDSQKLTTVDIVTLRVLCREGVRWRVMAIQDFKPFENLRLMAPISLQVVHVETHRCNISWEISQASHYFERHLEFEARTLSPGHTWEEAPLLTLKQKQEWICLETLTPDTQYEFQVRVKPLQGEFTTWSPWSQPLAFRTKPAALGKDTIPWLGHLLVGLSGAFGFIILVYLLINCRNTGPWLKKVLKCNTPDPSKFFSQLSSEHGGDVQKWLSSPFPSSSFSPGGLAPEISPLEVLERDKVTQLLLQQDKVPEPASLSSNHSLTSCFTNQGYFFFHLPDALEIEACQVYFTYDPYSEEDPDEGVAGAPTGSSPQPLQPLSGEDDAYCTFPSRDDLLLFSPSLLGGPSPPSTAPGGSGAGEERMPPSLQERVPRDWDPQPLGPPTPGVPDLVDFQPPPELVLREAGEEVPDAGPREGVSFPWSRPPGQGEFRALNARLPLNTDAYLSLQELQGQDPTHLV
T2 sequence (looked up) 3: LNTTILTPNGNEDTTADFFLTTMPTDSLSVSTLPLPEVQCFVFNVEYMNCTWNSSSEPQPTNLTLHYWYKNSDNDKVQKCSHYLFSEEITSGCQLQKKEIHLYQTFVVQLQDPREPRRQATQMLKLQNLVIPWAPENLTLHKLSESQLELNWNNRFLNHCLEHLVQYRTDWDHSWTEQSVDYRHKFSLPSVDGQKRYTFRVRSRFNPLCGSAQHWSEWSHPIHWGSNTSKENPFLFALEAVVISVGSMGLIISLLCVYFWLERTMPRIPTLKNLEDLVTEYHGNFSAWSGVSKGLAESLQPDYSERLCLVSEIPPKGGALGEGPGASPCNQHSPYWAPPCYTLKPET

[3] = target: T3, human IL-2Rβγc (on DERL-7 cells, U2OS IL2RB/IL2RG cells, CD25 knockout Kit225-STAT5 cells, primary CD8+ CTLs) (human, UniProt P14784 27-551; P31785 23-369)
T3 sequence (looked up) 1: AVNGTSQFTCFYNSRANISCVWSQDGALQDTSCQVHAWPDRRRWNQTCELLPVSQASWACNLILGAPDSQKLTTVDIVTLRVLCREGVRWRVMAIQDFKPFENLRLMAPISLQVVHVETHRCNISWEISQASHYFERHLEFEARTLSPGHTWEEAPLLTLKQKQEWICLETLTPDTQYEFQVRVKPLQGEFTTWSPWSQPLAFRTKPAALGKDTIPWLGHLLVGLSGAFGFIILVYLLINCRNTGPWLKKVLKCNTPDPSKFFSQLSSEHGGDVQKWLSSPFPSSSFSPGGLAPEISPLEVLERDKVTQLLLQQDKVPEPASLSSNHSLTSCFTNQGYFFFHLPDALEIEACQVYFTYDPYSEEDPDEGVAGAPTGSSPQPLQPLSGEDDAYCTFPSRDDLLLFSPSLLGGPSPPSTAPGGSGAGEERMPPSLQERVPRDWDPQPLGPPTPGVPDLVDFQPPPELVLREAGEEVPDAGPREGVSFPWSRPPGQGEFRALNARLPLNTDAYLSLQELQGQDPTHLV
T3 sequence (looked up) 2: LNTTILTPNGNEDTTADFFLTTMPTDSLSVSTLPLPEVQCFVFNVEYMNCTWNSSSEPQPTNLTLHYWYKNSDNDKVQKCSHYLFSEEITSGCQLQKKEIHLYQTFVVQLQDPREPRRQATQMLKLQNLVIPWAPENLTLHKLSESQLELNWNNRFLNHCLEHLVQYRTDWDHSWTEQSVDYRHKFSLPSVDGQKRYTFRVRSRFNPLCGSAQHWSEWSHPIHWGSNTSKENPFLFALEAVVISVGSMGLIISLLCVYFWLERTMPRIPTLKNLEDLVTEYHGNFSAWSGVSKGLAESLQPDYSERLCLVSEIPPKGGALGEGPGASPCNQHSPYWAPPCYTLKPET

B1: Aldesleukin (DesA1_IL-2_C124S) (ligand)
chain: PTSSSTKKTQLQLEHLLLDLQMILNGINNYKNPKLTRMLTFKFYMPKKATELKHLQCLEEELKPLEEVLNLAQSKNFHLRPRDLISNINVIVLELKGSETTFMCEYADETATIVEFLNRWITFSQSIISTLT
[1]
  STAT5-CTLL2 EC50: 11 pM
  STAT5-CTLL2 EC50 Fold-change: 1 fold
[2]
  Kit225-STAT5 EC50: 1 pM
  Kit225-STAT5 EC50 Fold-change: 1 fold
  NK-92 EC50 Fold-change: 1 fold
  NK-92 proliferation EC50: 6 pM
[3]
  DERL-7 EC50 Fold-change: 1 fold
  DERL-7 proliferation EC50: 44 pM

From US20210340207A1 (Merck Sharp & Dohme, published 2021)
